Measurements: PubChem BioAssay AID686979 (National Center for Advancing Translational Sciences (NCATS), 2013)
The campaign covered roughly 420,000 compounds. About 50,000 (12%) were called active. This list was built around the results that the source calls inconclusive (neither active nor inactive); the mix of calls is not that of the screen. Calls come from the whole dose curve; as a rule, active = well fitted inhibition curve with a large enough effect; inconclusive = small, poorly fitted or top-dose-only effect; inactive = flat fitted curve, though single readings scatter. No potency is given beside an inconclusive call; the fits are too rough.

Test: qHTS for Inhibitors of human tyrosyl-DNA phosphodiesterase 1 (TDP1): qHTS in cells in presence of CPT; note: nearly all actives have a fitted effect of over 55% in size
Details: chicken DT40 Tdp1-/-;hTDP1 cells + 20 nM CPT, ATP luminescence, 48 h; activity change, negative = growth inhibition: at 46.2 µM (top of the series) unless noted
Summary of the method: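 Chicken DT40 Tdp1-/- cells complemented with human TDP1, 400 cells/well, exposed to compounds plus 20 nM camptothecin for at least 48 h at 37 C; viability read as ATP content by CellTiter-Glo luminescence.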
% is set by controls: 0 for no effect and ±100 for the full control effect; potency is the fitted concentration of half-maximal effect; tags give direction and shape of the fitted curve.

**Q.** With `COCOc1cccc(CN2CCC(C)(Oc3cccc(OC)c3)C2)c1` (stereo not given) as the compound, how does the Potency read?
**A.** active: 18.4 µM

**Q.** With `O=C(CSc1nccc(=O)[nH]1)Nc1ccc(N2CCOCC2)cc1` as the compound, how does the Potency read?
**A.** inactive

**Q.** For `COc1cccc(C2C=C(c3ccc(OC)cc3OC)Nc3nnnn32)c1` (stereo not given), which Potency is on record?
**A.** inconclusive [inhibitor, single point]

**Q.** Which Potency does the source give for `COc1ccc(S(=O)(=O)Nc2cccc3c2O[C@H](CN(C)S(=O)(=O)c2ccc(OC)cc2)[C@@H](C)CN([C@H](C)CO)C3=O)cc1` here?
**A.** inconclusive [inhibitor, single point]

**Q.** For `CC(Sc1nc2ncc(Cl)cc2[nH]1)C(=O)c1c(N)n(C)c(=O)n(C)c1=O` (stereo not given), which Potency is on record?
**A.** inactive

**Q.** For `COC(=O)c1ccc(CSc2nc3ccccc3c(=O)n2-c2ccccc2)o1`, which Potency is on record?
**A.** inconclusive [inhibitor, single point]

**Q.** Which Potency does the source give for `O=C(NCc1ccccn1)c1cc2ccccn2n1` here?
**A.** inactive

**Q.** With `O=C(c1cccs1)N(CC1CCCO1)c1nc(-c2ccccc2)cs1` (stereo not given) as the compound, how does the Potency read?
**A.** active: 20.6 µM

**Q.** For `Cc1noc(C)c1C(=O)Nc1ccccc1-c1ccccc1`, which Potency is on record?
**A.** inconclusive [inhibitor, single point]

**Q.** With `CC(C)C(NC(=O)c1ccccc1)C(=O)OCC(=O)N1CCCC1` (stereo not given) as the compound, how does the Potency read?
**A.** inactive

**Q.** For `CN1C(=O)C2C3c4ccccc4C(c4ccccc43)[C@@H]2C1=O` (stereo not given in full), which Potency is on record?
**A.** inconclusive [inhibitor, partial curve]

**Q.** With `O=c1[nH]c2cc3c(cc2cc1C(c1nnnn1CC1CCCO1)N1CCCCCC1)OCCO3` (stereo not given) as the compound, how does the Potency read?
**A.** inconclusive [inhibitor, single point]

**Q.** For `Cc1ccccc1OCC(O)Cn1c(NCc2ccco2)nc2c1c(=O)[nH]c(=O)n2C` (stereo not given), which Potency is on record?
**A.** inconclusive [inhibitor, partial curve, poor fit]

**Q.** With `CCCn1nc(NC(=O)c2cccs2)c2cc3cccc(C)c3nc21` as the compound, how does the Potency read?
**A.** inactive

**Q.** With `COc1cc(NC(=O)c2nc3ccccc3nc2C)cc(OC)c1OC` as the compound, how does the Potency read?
**A.** inactive

**Q.** Which Potency does the source give for `Nc1ccc(-c2nc3c(ccc4ccccc43)[nH]2)cc1` here?
**A.** inconclusive [inhibitor, single point]

**Q.** Which Potency does the source give for `Cc1ccc(Cc2c(-c3ccc(C)cc3)nc3c(Cl)cc(C(F)(F)F)cn23)cc1` here?
**A.** inconclusive [inhibitor, single point]

**Q.** For `CCCCNC(=O)C1c2ccccc2OCC(=O)N1Cc1cccnc1` (stereo not given), which Potency is on record?
**A.** inactive

**Q.** With `Cc1ccc(-n2c(=O)c3ccccc3n(CC(=O)NCc3ccco3)c2=O)cc1` as the compound, how does the Potency read?
**A.** inactive

**Q.** Which Potency does the source give for `Cc1ccc(C(=O)Cn2cncn2)cc1` here?
**A.** inactive

**Q.** For `COc1ccc(NC(=O)CCn2nc(-c3ccccc3OC)c3c(C)cc(C)nc32)cc1`, which Potency is on record?
**A.** inconclusive [inhibitor, single point]

**Q.** Which Potency does the source give for `CC(=O)C1=C(O)C(=O)N(c2ccc(Br)cc2)C1c1ccc(Cl)cc1` (stereo not given) here?
**A.** inactive

**Q.** Which Potency does the source give for `O=C1CS(=O)CN1c1ccc(Oc2ccccc2)cc1` (stereo not given) here?
**A.** inactive

**Q.** With `COc1ccccc1N1CCN(/N=C\c2ccccc2)CC1` as the compound, how does the Potency read?
**A.** inactive

**Q.** For `COc1ccc(CNC(=S)Nc2cccc(F)c2)cc1`, which Potency is on record?
**A.** inactive

**Q.** With `Cn1c(COc2ccc3ccccc3c2)nnc1SCC(=O)OC1CCCCC1` as the compound, how does the Potency read?
**A.** inactive

**Q.** Which Potency does the source give for `CCC(C(=O)N1CCN(c2ccccc2F)CC1)n1nc(C)c2sc3ccccc3c2c1=O` (stereo not given) here?
**A.** inconclusive [inhibitor, single point]

**Q.** Which Potency does the source give for `COc1ccc(C2(C)ON(c3ccccc3C(F)(F)F)C2=O)cc1` (stereo not given) here?
**A.** inconclusive [inhibitor, single point]

**Q.** For `CCCCn1nnnc1C(c1cc2ccccc2o1)N1CCN(c2ccccc2F)CC1` (stereo not given), which Potency is on record?
**A.** inconclusive [inhibitor, single point]

**Q.** For `CC(C)(C)OC(=O)NCCCCCc1nnc(SCc2ccccc2)o1`, which Potency is on record?
**A.** inconclusive [inhibitor, single point]

**Q.** Which Potency does the source give for `CCOC(=O)c1c(C)n(S(=O)(=O)c2ccc(C)cc2)c2ccc(O)c(C(=O)O)c12` here?
**A.** inactive

**Q.** With `COc1ccc(N2CC(C(=O)Nc3nnc(SCC(=O)NCc4ccco4)s3)CC2=O)cc1` (stereo not given) as the compound, how does the Potency read?
**A.** inconclusive [inhibitor, partial curve]

**Q.** For `CCOC(=O)N1CCc2c(sc3c2c(=O)n(Cc2ccccc2)c(=O)n3Cc2ccccc2F)C1`, which Potency is on record?
**A.** inconclusive [inhibitor, single point]

**Q.** With `CC1=C(C(=O)OCC(C)C)C(c2ccc(OCc3ccccc3)cc2)N2C(=O)CCSC2=N1` (stereo not given) as the compound, how does the Potency read?
**A.** inconclusive [inhibitor, single point]

**Q.** For `O=C(O)Cn1c(Cc2ccccc2)nc2ccccc21`, which Potency is on record?
**A.** inactive

**Q.** For `CCOC(=O)N1CCC(NC(=O)CCc2c(C)nc3c(c(C)nn3C(C)(C)C)c2C)CC1`, which Potency is on record?
**A.** inconclusive [inhibitor, single point]

**Q.** For `Cn1c(C=O)c(-c2ccc3cc[nH]c3c2)c2ccccc21`, which Potency is on record?
**A.** inactive

**Q.** For `CCOc1ccccc1C(=O)Nc1cc(C)ccc1NC(=O)c1ccco1`, which Potency is on record?
**A.** inconclusive [inhibitor, single point]

**Q.** For `Cc1ccc(S(=O)(=O)N2c3ccccc3OC(C(=O)OC(C)(C)C)(C(=O)OC(C)(C)C)C2CC(=O)c2ccccc2)cc1` (stereo not given), which Potency is on record?
**A.** active: 6.51 µM

**Q.** With `Cc1ccccc1OCc1ccc(-c2nc(C#N)c(N3CCN(C)CC3)o2)o1` as the compound, how does the Potency read?
**A.** inconclusive [inhibitor, single point]

**Q.** With `Cc1cc(NC(=O)CCC(=O)N(Cc2cccs2)C(C(=O)NC2CCCC2)c2ccncc2)no1` (stereo not given) as the compound, how does the Potency read?
**A.** inactive

**Q.** With `CSCC(C)N1CCC(n2nccc2NC(=O)CCOc2ccccc2)CC1` (stereo not given) as the compound, how does the Potency read?
**A.** inactive

**Q.** For `CCN(CC)C(=O)Cn1c(SCCOc2ccc(Cl)cc2)nc2ccccc21`, which Potency is on record?
**A.** inconclusive [inhibitor, single point]

**Q.** Which Potency does the source give for `COc1ccc(C(O)c2nc(-c3cnc4ccccc4c3)cs2)cc1` (stereo not given) here?
**A.** inconclusive [inhibitor, single point]

**Q.** For `CCCc1nn2c(=O)cc(COc3ccc(/C=C(\C#N)C(=O)Nc4ccc(F)cc4)cc3)nc2s1`, which Potency is on record?
**A.** inconclusive [inhibitor, single point]

**Q.** Which Potency does the source give for `O=c1oc(-c2cccs2)nc2ccc(Cl)cc12` here?
**A.** inactive

**Q.** With `OC[C@@H]1CN(Cc2ccccc2)C[C@H](n2cnc3c(N4CCOCC4)ncnc32)O1` as the compound, how does the Potency read?
**A.** inactive

**Q.** Which Potency does the source give for `CCOc1ccc(CN(C)C(=O)[C@H](Cc2ccccc2)NC(=O)OCc2ccccc2)cc1OC` here?
**A.** inconclusive [inhibitor, single point]

**Q.** For `Cc1ncoc1C(=O)N1CCc2c([nH]c3ccccc23)C1c1ccccc1F` (stereo not given), which Potency is on record?
**A.** inactive

**Q.** Which Potency does the source give for `Cc1ccc(CNS(=O)(=O)c2ccc(Cl)s2)cc1` here?
**A.** inconclusive [inhibitor, single point]

**Q.** With `COc1ccc(C2SCC(=O)N2Cc2ccccc2)cc1` (stereo not given) as the compound, how does the Potency read?
**A.** inconclusive [inhibitor, single point]

**Q.** Which Potency does the source give for `O=C(Nc1ccccc1)c1ccccc1NC(=O)c1ccccc1[N+](=O)[O-]` here?
**A.** inactive

**Q.** Which Potency does the source give for `COc1ccc(CNC(=O)COC(=O)c2cc3ccccc3o2)cc1` here?
**A.** inactive

**Q.** With `CCCCN(C)C(=O)C1CCC(CNS(=O)(=O)c2ccc3c(c2)CC(C)N3C(C)=O)CC1` (stereo not given) as the compound, how does the Potency read?
**A.** active: 13 µM

**Q.** Which Potency does the source give for `Nc1nonc1C(=O)N/N=C/c1cc2c(cc1Br)OCO2` here?
**A.** inactive

**Q.** For `CCC(=O)N1c2ccc(S(=O)(=O)N(CCO)Cc3ccccc3)cc2CC1C` (stereo not given), which Potency is on record?
**A.** inconclusive [inhibitor, single point]

**Q.** Which Potency does the source give for `Cc1ccc(C)c(OCCn2cc(/C=C(/C#N)C(=O)NCC3CCCO3)c3ccccc32)c1` (stereo not given) here?
**A.** active: 16.4 µM

**Q.** For `CC(=O)N1CCc2c(sc(NC(=O)c3ccc(S(=O)(=O)N(C)C)cc3)c2C#N)C1`, which Potency is on record?
**A.** inactive

**Q.** For `CCS(=O)(=O)c1ccc2oc(SCC(=O)NCc3ccccc3)nc2c1`, which Potency is on record?
**A.** inactive

**Q.** Which Potency does the source give for `Cc1ccc(C2CC(c3cccs3)=NN2C(=O)CSC2=NN3CCCC(=O)N=C3S2)cc1` (stereo not given) here?
**A.** active: 13 µM

**Q.** Which Potency does the source give for `NCCN1CCN(S(=O)(=O)c2ccc([N+](=O)[O-])cc2)C=C1c1ccc(Cl)cc1` here?
**A.** inconclusive [inhibitor, single point]

**Q.** For `O=C(NCCCN1CCCC1=O)c1cc(-c2ccc3c(c2)OCO3)nc2ccccc12`, which Potency is on record?
**A.** active: 16.4 µM

**Q.** With `CC/C(=N\NC(=O)C(N)=O)c1ccccc1O` as the compound, how does the Potency read?
**A.** inconclusive [inhibitor, single point]

**Q.** For `O=C(NC(=S)Nc1ccc(S(=O)(=O)N2CCCCC2)cc1)c1ccc(Cl)cc1`, which Potency is on record?
**A.** active: 16.4 µM

**Q.** For `Nc1ccn([C@@H]2O[C@H](C(=O)N3CCSC3)[C@@H](O)[C@H]2O)c(=O)n1`, which Potency is on record?
**A.** inactive

**Q.** With `CCOc1ccc(NC(=O)COC(=O)C2CC2C)cc1` (stereo not given) as the compound, how does the Potency read?
**A.** inconclusive [inhibitor, single point]

**Q.** For `O=C(Nc1ccccc1F)Nc1cccnc1Cl`, which Potency is on record?
**A.** inconclusive [inhibitor, single point]

**Q.** Which Potency does the source give for `CC(=O)N1c2ccccc2C(=O)C1N1CCN(c2ccc(F)cc2)CC1` (stereo not given) here?
**A.** inconclusive [inhibitor, single point]

**Q.** For `O=C1C(=O)c2cccnc2-c2ncccc21`, which Potency is on record?
**A.** active: 0.0326 µM

**Q.** With `CCN1CCN(c2ccc(S(=O)(=O)N3CCOCC3)cc2NC(=O)/C=C/c2ccc([N+](=O)[O-])cc2)CC1` as the compound, how does the Potency read?
**A.** inconclusive [inhibitor, single point]

**Q.** With `O=C(CCc1nc2ccccc2s1)N1CCOc2ccc(CN3CCc4sccc4C3)cc2C1` as the compound, how does the activity change, negative = growth inhibition read?
**A.** inactive: -0.332% [at 9.04 µM]

**Q.** For `Fc1ccc(OCc2nn[nH]n2)c(F)c1`, which Potency is on record?
**A.** inactive

**Q.** For `Cn1cc(CCNC(=O)c2ccc3nc(Cc4ccccc4F)oc3c2)cn1`, which Potency is on record?
**A.** inconclusive [inhibitor, partial curve]

**Q.** With `Cc1cccc(C(=O)N[C@H](C(=O)NCc2cccs2)C(C)C)c1` as the compound, how does the Potency read?
**A.** inconclusive [inhibitor, single point]

**Q.** Which Potency does the source give for `Cc1ccc(CSC2=NCCN2S(=O)(=O)c2ccc(F)cc2)cc1` here?
**A.** inconclusive [inhibitor, single point]
